Some of the results follow.
The sequences below were run against T1, MBP-FoxP1dN (Mus musculus, UniProt P58462 326-579) (assay: PD-seq (MBP pull-down with sequencing); 20 mM Tris-HCl pH 7.5, 100 mM NaCl, 1.5 mM MgCl2, 0.4 uM protein, 0.1 uM dsDNA library, 30 min, room temperature, amylose pull-down; high values mean tight binding). Conditions: protein: recombinant; tags: His6-MBP; chain copies: 2; dsDNA, one strand shown.
T1 sequence: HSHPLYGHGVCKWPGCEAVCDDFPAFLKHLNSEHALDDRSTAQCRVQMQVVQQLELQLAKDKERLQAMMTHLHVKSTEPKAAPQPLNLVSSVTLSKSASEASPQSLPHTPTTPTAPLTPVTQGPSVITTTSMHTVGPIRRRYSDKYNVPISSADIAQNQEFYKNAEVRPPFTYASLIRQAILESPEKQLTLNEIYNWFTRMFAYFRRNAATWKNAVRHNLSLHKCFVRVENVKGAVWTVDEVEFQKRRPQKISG
Method in brief: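 Binding is the reads-per-million enrichment of pull-down relative to input, pooled across replicates. For this, 0.4 µM His6-MBP-tagged mouse FoxP3 or FoxP1 fragment lacking the N-terminus, made in E. coli, was incubated with 0.1 µM Klenow-filled double-stranded degenerate DNA library for 30 min at room temperature in Tris pH 7.5 buffer with NaCl and MgCl2. Complexes bound to amylose resin were washed three times before proteinase K released the DNA for PCR barcoding and Illumina sequencing.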

| Sequence | binding signal |
| --- | --- |
| GATGATTGTTCTCCCAGCTGATGAATTTAGCAATTCGAGTAAACAAATTTTCCTAATCTTTCTGTTCAAGCGCCATCTAC | 1.07 RPM ratio (pull-down/input) |
| GATGATTGTTCTCCCAGCTGATGAATTCCGCCTGTCGAGTAAACAAATTTTCCTAATCTTTCTGTTCAAGCGCCATCTAC | 0.75 RPM ratio (pull-down/input) |
| GATGATTGTTCTCCCAGCTGATGAATTGGCAATGTCGAGTAAACAAATTTTCCTAATCTTTCTGTTCAAGCGCCATCTAC | 0.922 RPM ratio (pull-down/input) |
| GATGATTGTTCTCCCAGCTGATGAATTCGGGCGCTCGAGTAAACAAATTTTCCTAATCTTTCTGTTCAAGCGCCATCTAC | 0.805 RPM ratio (pull-down/input) |
| GATGATTGTTCTCCCAGCTGATGAATTCGCCATCTCGAGTAAACAAATTTTCCTAATCTTTCTGTTCAAGCGCCATCTAC | 0.852 RPM ratio (pull-down/input) |
| GATGATTGTTCTCCCAGCTGATGAATTGCATCCATCGAGTAAACAAATTTTCCTAATCTTTCTGTTCAAGCGCCATCTAC | 1.64 RPM ratio (pull-down/input) |
| GATGATTGTTCTCCCAGCTGATGAATTTTATGTCTCGAGTAAACAAATTTTCCTAATCTTTCTGTTCAAGCGCCATCTAC | 0.899 RPM ratio (pull-down/input) |
| GATGATTGTTCTCCCAGCTGATGAATTATGCTGGTCGAGTAAACAAATTTTCCTAATCTTTCTGTTCAAGCGCCATCTAC | 1.01 RPM ratio (pull-down/input) |
| GATGATTGTTCTCCCAGCTGATGAATTTAATGTGTCGAGTAAACAAATTTTCCTAATCTTTCTGTTCAAGCGCCATCTAC | 1.07 RPM ratio (pull-down/input) |
| GATGATTGTTCTCCCAGCTGATGAATTTTTGTCTTCGAGTAAACAAATTTTCCTAATCTTTCTGTTCAAGCGCCATCTAC | 1.05 RPM ratio (pull-down/input) |
| GATGATTGTTCTCCCAGCTGATGAATTTGGGTCTTCGAGTAAACAAATTTTCCTAATCTTTCTGTTCAAGCGCCATCTAC | 0.904 RPM ratio (pull-down/input) |
| GATGATTGTTCTCCCAGCTGATGAATTCTTAGGCTCGAGTAAACAAATTTTCCTAATCTTTCTGTTCAAGCGCCATCTAC | 0.791 RPM ratio (pull-down/input) |
| GATGATTGTTCTCCCAGCTGATGAATTGCAAATTTCGAGTAAACAAATTTTCCTAATCTTTCTGTTCAAGCGCCATCTAC | 1.39 RPM ratio (pull-down/input) |
| GATGATTGTTCTCCCAGCTGATGAATTATCAACGTCGAGTAAACAAATTTTCCTAATCTTTCTGTTCAAGCGCCATCTAC | 1.04 RPM ratio (pull-down/input) |
| GATGATTGTTCTCCCAGCTGATGAATTCAACCCGTCGAGTAAACAAATTTTCCTAATCTTTCTGTTCAAGCGCCATCTAC | 0.968 RPM ratio (pull-down/input) |
| GATGATTGTTCTCCCAGCTGATGAATTTTGCCTATCGAGTAAACAAATTTTCCTAATCTTTCTGTTCAAGCGCCATCTAC | 0.955 RPM ratio (pull-down/input) |
| GATGATTGTTCTCCCAGCTGATGAATTTTCACCGTCGAGTAAACAAATTTTCCTAATCTTTCTGTTCAAGCGCCATCTAC | 0.917 RPM ratio (pull-down/input) |
| GATGATTGTTCTCCCAGCTGATGAATTTGCTCAATCGAGTAAACAAATTTTCCTAATCTTTCTGTTCAAGCGCCATCTAC | 1.05 RPM ratio (pull-down/input) |
| GATGATTGTTCTCCCAGCTGATGAATTTCAGAGATCGAGTAAACAAATTTTCCTAATCTTTCTGTTCAAGCGCCATCTAC | 0.805 RPM ratio (pull-down/input) |
| GATGATTGTTCTCCCAGCTGATGAATTAACACCGTCGAGTAAACAAATTTTCCTAATCTTTCTGTTCAAGCGCCATCTAC | 1 RPM ratio (pull-down/input) |

| Sequence | binding signal |
| --- | --- |
| GATGATTGTTCTCCCAGCTGATGAATTGGGAGGCTCGAGTAAACAAATTTTCCTAATCTTTCTGTTCAAGCGCCATCTAC | 0.814 RPM ratio (pull-down/input) |
| GATGATTGTTCTCCCAGCTGATGAATTTGGCGTTTCGAGTAAACAAATTTTCCTAATCTTTCTGTTCAAGCGCCATCTAC | 0.926 RPM ratio (pull-down/input) |
| GATGATTGTTCTCCCAGCTGATGAATTCTTTGCGTCGAGTAAACAAATTTTCCTAATCTTTCTGTTCAAGCGCCATCTAC | 0.999 RPM ratio (pull-down/input) |
| GATGATTGTTCTCCCAGCTGATGAATTCAAAGTCTCGAGTAAACAAATTTTCCTAATCTTTCTGTTCAAGCGCCATCTAC | 0.801 RPM ratio (pull-down/input) |
| GATGATTGTTCTCCCAGCTGATGAATTGGGACTCTCGAGTAAACAAATTTTCCTAATCTTTCTGTTCAAGCGCCATCTAC | 0.812 RPM ratio (pull-down/input) |
| GATGATTGTTCTCCCAGCTGATGAATTAATCAGTTCGAGTAAACAAATTTTCCTAATCTTTCTGTTCAAGCGCCATCTAC | 1.06 RPM ratio (pull-down/input) |
| GATGATTGTTCTCCCAGCTGATGAATTGGCGTAATCGAGTAAACAAATTTTCCTAATCTTTCTGTTCAAGCGCCATCTAC | 1.3 RPM ratio (pull-down/input) |
| GATGATTGTTCTCCCAGCTGATGAATTGCCGATGTCGAGTAAACAAATTTTCCTAATCTTTCTGTTCAAGCGCCATCTAC | 0.984 RPM ratio (pull-down/input) |
| GATGATTGTTCTCCCAGCTGATGAATTCCGGAAGTCGAGTAAACAAATTTTCCTAATCTTTCTGTTCAAGCGCCATCTAC | 0.798 RPM ratio (pull-down/input) |
| GATGATTGTTCTCCCAGCTGATGAATTACAGCCCTCGAGTAAACAAATTTTCCTAATCTTTCTGTTCAAGCGCCATCTAC | 0.917 RPM ratio (pull-down/input) |
| GATGATTGTTCTCCCAGCTGATGAATTGAACGCGTCGAGTAAACAAATTTTCCTAATCTTTCTGTTCAAGCGCCATCTAC | 0.946 RPM ratio (pull-down/input) |
| GATGATTGTTCTCCCAGCTGATGAATTGAGTAATTCGAGTAAACAAATTTTCCTAATCTTTCTGTTCAAGCGCCATCTAC | 1.02 RPM ratio (pull-down/input) |
| GATGATTGTTCTCCCAGCTGATGAATTATAGAGATCGAGTAAACAAATTTTCCTAATCTTTCTGTTCAAGCGCCATCTAC | 0.873 RPM ratio (pull-down/input) |
| GATGATTGTTCTCCCAGCTGATGAATTCTCTCCTTCGAGTAAACAAATTTTCCTAATCTTTCTGTTCAAGCGCCATCTAC | 0.83 RPM ratio (pull-down/input) |
| GATGATTGTTCTCCCAGCTGATGAATTCCGACCGTCGAGTAAACAAATTTTCCTAATCTTTCTGTTCAAGCGCCATCTAC | 0.8 RPM ratio (pull-down/input) |
| GATGATTGTTCTCCCAGCTGATGAATTACCCACATCGAGTAAACAAATTTTCCTAATCTTTCTGTTCAAGCGCCATCTAC | 1.06 RPM ratio (pull-down/input) |
| GATGATTGTTCTCCCAGCTGATGAATTTAATTTCTCGAGTAAACAAATTTTCCTAATCTTTCTGTTCAAGCGCCATCTAC | 0.885 RPM ratio (pull-down/input) |
| GATGATTGTTCTCCCAGCTGATGAATTGGATAATTCGAGTAAACAAATTTTCCTAATCTTTCTGTTCAAGCGCCATCTAC | 0.874 RPM ratio (pull-down/input) |
| GATGATTGTTCTCCCAGCTGATGAATTCCAGGATTCGAGTAAACAAATTTTCCTAATCTTTCTGTTCAAGCGCCATCTAC | 0.847 RPM ratio (pull-down/input) |
| GATGATTGTTCTCCCAGCTGATGAATTCAGTCACTCGAGTAAACAAATTTTCCTAATCTTTCTGTTCAAGCGCCATCTAC | 0.895 RPM ratio (pull-down/input) |

— paper PMC12820563, “FoxP3 forms a head-to-head dimer in vivo and stabilizes its multimerization on adjacent microsatellites”
